172 sequences from article PMC10668032 can be followed below.

Some of the results follow. At the low end of the ranking the order means little.

The target of the test is SIX1-Q177R homeodomain (UniProt Q15475). The test is described as follows: universal protein binding microarray. The note with it: Universal all-10-mer PBM (8x60K, AMADID 030236), 300 nM GST-tagged protein, Alexa Fluor 488 anti-GST; buffer, salt, pH and temperature not stated; high values mean tight binding; most listed sequences are background and not binding sites; double strand, one strand shown.
For ATTGAAAA, the binding signal was -0.138 E-score.

Consider AACGCCAA, for which the binding signal is 0.0352 E-score.

With ATTCATCC, the binding signal is -0.0695 E-score.

For the sequence CCGGATTC, the binding signal came to 0.167 E-score.

As to TGCGCTAA, the binding signal was determined as 0.066 E-score.

On to ATCGAAAA, for which the binding signal was -0.106 E-score.

For CGGATTGC, the binding signal is -0.0858 E-score.

Regarding CCATGGTA, the binding signal was determined as 0.0388 E-score.

On to GAGGACCA, for which the binding signal was -0.124 E-score.

Turning to CTAGCTCA, the binding signal is -0.107 E-score.

With CTAGGCGA, the binding signal is -0.0769 E-score.

For the sequence CACGGTCC, the binding signal is 0.0325 E-score.

With AACCGCCC, the binding signal turned out to be 0.11 E-score.

CGACTCAC: the binding signal is -0.00197 E-score.

Regarding CAACTCAA, the binding signal turned out to be 0.0138 E-score.

For the sequence CGCGCGTC, the binding signal was -0.0681 E-score.

Take CGACAGTC: the binding signal is -0.239 E-score.

Regarding GCAGCAAC, the binding signal was -0.00496 E-score.

ACGAACTG: the binding signal is -0.224 E-score.

For the sequence CAACAGAG, the binding signal was -0.11 E-score.

On to GCAGTAGA, for which the binding signal came out at 0.0449 E-score.

As to GGGGGAAC, the binding signal stood at 0.105 E-score.

As for ACCAGGCT, the binding signal was -0.0563 E-score.

Turning to ACCTCGTG, the binding signal came to 0.208 E-score.

For the sequence AAAAGGGC, the binding signal is -0.163 E-score.

For CACCACTG, the binding signal was determined as 0.342 E-score.

Regarding AGTTCCGG, the binding signal amounted to 0.0899 E-score.

For the sequence ACTGGGAT, the binding signal is -0.01 E-score.

With CAGCATGG, the binding signal was 0.00833 E-score.

Take CGGGATGC: the binding signal is -0.058 E-score.

Turning to ATTGGCGC, the binding signal was -0.0819 E-score.

Take AGGCCCGG: the binding signal was -0.095 E-score.

As to TCCGGAGA, the binding signal was -0.0365 E-score.

In the case of AACGTCTC, the binding signal was -0.0929 E-score.

For CAGACCAA, the binding signal was -0.166 E-score.

As to AGAAGCGA, the binding signal is -0.146 E-score.

With ATAGTGGC, the binding signal is 0.0957 E-score.

As for AATTAATC, the binding signal was -0.26 E-score.

On to AGCAACGG, for which the binding signal is -0.049 E-score.

With AGGTGCCC, the binding signal was 0.0067 E-score.

ACGAAATC: the binding signal is -0.224 E-score.

Consider GCCACTCA, for which the binding signal is -0.176 E-score.

Take CGAACCAG: the binding signal turned out to be 0.00568 E-score.

On to GCCAACAA, for which the binding signal is -0.276 E-score.

In the case of GCGGGAAA, the binding signal was -0.114 E-score.

Regarding GCTCCTGA, the binding signal was -0.103 E-score.

Take ATCCATCA: the binding signal is -0.0688 E-score.

AGAAAACG: the binding signal was -0.111 E-score.

In the case of ACGAGGAC, the binding signal is 0.0573 E-score.

For the sequence ATTGACTA, the binding signal is -0.212 E-score.

As to GCGAAGCC, the binding signal was -0.135 E-score.

With ATGGCCTG, the binding signal is -0.0958 E-score.

As for AAGCGACT, the binding signal is -0.101 E-score.

As to CCATGGAA, the binding signal came to 0.156 E-score.

Regarding ATCTAAAA, the binding signal was -0.226 E-score.

For the sequence AACCTCTA, the binding signal is -0.138 E-score.

CGAAGTAC: the binding signal worked out at 0.174 E-score.

Consider CAGAGGCG, for which the binding signal was -0.06 E-score.

For ATAGGGTA, the binding signal was determined as 0.0716 E-score.

Turning to AGCGCCAG, the binding signal is -0.0481 E-score.

For GTGTAAAA, the binding signal stood at 0.401 E-score.

Take ACTCCAGC: the binding signal is 0.112 E-score.

With ACTACTTA, the binding signal is -0.0184 E-score.

Turning to ACTATTTC, the binding signal was -0.138 E-score.

CCATCTGC: the binding signal is -0.0601 E-score.

Turning to AAGCCCCG, the binding signal was -0.0634 E-score.

With ATTGCCGA, the binding signal is -0.00773 E-score.

Turning to TTCCAAAA, the binding signal was -0.103 E-score.

For the sequence ATCTTAGA, the binding signal was -0.189 E-score.

Turning to ACACTTCG, the binding signal was determined as 0.327 E-score.

Regarding CTCCCGTA, the binding signal stood at 0.0446 E-score.

ATATAGTA: the binding signal is 0.0164 E-score.

With GGGTGACC, the binding signal amounted to 0.0806 E-score.

CTGCGGAC: the binding signal is -0.107 E-score.

For GACGATTA, the binding signal was -0.0835 E-score.

As for AGGATGGC, the binding signal was -0.0236 E-score.

Consider CCAGCGCG, for which the binding signal came to 0.0042 E-score.

Consider TCAAGGCA, for which the binding signal was -0.171 E-score.

Turning to GCGTTCCC, the binding signal is -0.0844 E-score.

For AAAGGAAG, the binding signal was -0.206 E-score.

Turning to GATTGCAA, the binding signal was -0.255 E-score.

Take CGCCTCCG: the binding signal is 0.0308 E-score.

In the case of AAACCTCC, the binding signal was found to be 0.0345 E-score.

With CGTTCCCA, the binding signal is -0.16 E-score.

Take AATGTATG: the binding signal is -0.0693 E-score.

AGCAATGA: the binding signal was -0.0598 E-score.

Take ACCGGGAT: the binding signal worked out at 0.118 E-score.

In the case of ACGGAAAG, the binding signal is -0.0425 E-score.

Turning to AATTTTGG, the binding signal was -0.162 E-score.

In the case of CCGCTGAG, the binding signal is -0.1 E-score.

As for CCTTGTAC, the binding signal was 0.0763 E-score.

In the case of TCCTTTAA, the binding signal was -0.119 E-score.

Turning to CTGGATTC, the binding signal is -0.0961 E-score.

In the case of CAGAGAAA, the binding signal was -0.155 E-score.

Take ACCCAAGA: the binding signal amounted to 0.163 E-score.

Consider GAATTGCC, for which the binding signal was -0.243 E-score.

Regarding GATCTACC, the binding signal is 0.011 E-score.

For GGGGCAAA, the binding signal is -0.159 E-score.

On to GCTTCGCA, for which the binding signal was -0.122 E-score.

Take GAAACGTC: the binding signal is -0.158 E-score.

As for ACGACTAT, the binding signal is -0.0394 E-score.

As to TGTACCAA, the binding signal came out at 0.164 E-score.

For ATAGCTTG, the binding signal is -0.193 E-score.

Regarding TACTCTAA, the binding signal is -0.0139 E-score.

In the case of AAATGCTT, the binding signal was -0.233 E-score.

For CCACTTCC, the binding signal came out at 0.16 E-score.

In the case of CTGGGCTC, the binding signal is -0.274 E-score.

As for CGAGCTCA, the binding signal is -0.213 E-score.

In the case of ACTATCGA, the binding signal was found to be 0.156 E-score.

For ACCAGATC, the binding signal turned out to be 0.164 E-score.

On to AAGAAAGA, for which the binding signal was -0.335 E-score.

For CCCTGCTA, the binding signal was -0.0229 E-score.

Turning to CCGTAACA, the binding signal came to 0.145 E-score.

As to TGGCTTAA, the binding signal was -0.223 E-score.

With ACCCGTAA, the binding signal stood at 0.264 E-score.

As to GGTCGGTA, the binding signal is -0.000165 E-score.

Turning to TAAGAGGA, the binding signal was -0.106 E-score.

Take CGACACAG: the binding signal was 0.251 E-score.

Consider CTATGCAA, for which the binding signal was -0.141 E-score.

Turning to ATATGAAG, the binding signal is -0.0649 E-score.

For GCCGACCC, the binding signal amounted to 0.132 E-score.

For GAAGTGAC, the binding signal is -0.116 E-score.

As to GAAGTCAA, the binding signal is -0.24 E-score.

Take GAATCGAC: the binding signal came to 0.0378 E-score.

As for GTGTGAAA, the binding signal was 0.356 E-score.

With ACTCACCG, the binding signal turned out to be 0.0377 E-score.

As for CGTAAGAC, the binding signal is -0.186 E-score.

On to GCAGCGGC, for which the binding signal was -0.195 E-score.

As to GGCGTATA, the binding signal was 0.0351 E-score.

Consider GTTAATCA, for which the binding signal was -0.226 E-score.

Take GCCTTCGC: the binding signal was -0.126 E-score.

Consider CTGGTAGA, for which the binding signal was -0.0129 E-score.

Regarding CTTGAAAC, the binding signal came out at 0.0164 E-score.

For the sequence AGTTGAAT, the binding signal is -0.274 E-score.

For the sequence AATGTTCT, the binding signal is -0.216 E-score.

With AGTACCGC, the binding signal amounted to 0.0481 E-score.

For AAATTGTT, the binding signal was -0.113 E-score.

In the case of CCACATAC, the binding signal turned out to be 0.00319 E-score.

Turning to AGATCGGA, the binding signal was -0.00039 E-score.

Consider CATGAATC, for which the binding signal is -0.0785 E-score.

Take ACGTATTA: the binding signal is 0.00142 E-score.

For ACCAGGCC, the binding signal stood at 0.0416 E-score.

Take AGTTAGAC: the binding signal is -0.115 E-score.

As to AAACAGAG, the binding signal was -0.148 E-score.

Regarding TATGCAGA, the binding signal was -0.158 E-score.

Turning to AGTTGGCC, the binding signal is -0.0822 E-score.

On to ACTGATCT, for which the binding signal was found to be 0.00396 E-score.

Take CGTTCTCC: the binding signal was -0.124 E-score.

Consider ACTAGACC, for which the binding signal amounted to 0.0472 E-score.

In the case of AGGAGCAG, the binding signal is -0.227 E-score.

For ATTAGCGG, the binding signal was -0.191 E-score.

On to AGCACTGA, for which the binding signal is -0.165 E-score.

Turning to CACTACAG, the binding signal came to 0.196 E-score.

Regarding ATTGGTAA, the binding signal was -0.351 E-score.

For the sequence AAGTTCAA, the binding signal was -0.182 E-score.

For the sequence CTGAGCAC, the binding signal was found to be 0.254 E-score.

As for CCAGTATA, the binding signal is -0.171 E-score.

Regarding ACCTAAAA, the binding signal was -0.0543 E-score.

Turning to GCCCAGGA, the binding signal was -0.141 E-score.

For the sequence GGGAGTCA, the binding signal was found to be 0.221 E-score.

Take CCGCGAAA: the binding signal was found to be 0.167 E-score.

For the sequence CAGCCAAC, the binding signal was -0.0555 E-score.

Take GTTTGGGA: the binding signal is -0.104 E-score.

Take AAGGTGTA: the binding signal worked out at 0.461 E-score.

Turning to AGATTATA, the binding signal was -0.17 E-score.

Consider TCACAGAA, for which the binding signal came out at 0.0166 E-score.

As to AGTACTCC, the binding signal was 0.122 E-score.

As to ACTAGTCT, the binding signal was -0.0778 E-score.

GAATTTGA: the binding signal is -0.313 E-score.

Consider AACTAGCC, for which the binding signal is -0.131 E-score.

For the sequence AGGACTTC, the binding signal was -0.205 E-score.

In the case of CAAATTTC, the binding signal is -0.179 E-score.
